Data reported in PMC12136788.
The list shows a part of the results.

T1: UNK ZnF1-3 (human, UniProt Q9C0B0 31-174)
T1 sequence: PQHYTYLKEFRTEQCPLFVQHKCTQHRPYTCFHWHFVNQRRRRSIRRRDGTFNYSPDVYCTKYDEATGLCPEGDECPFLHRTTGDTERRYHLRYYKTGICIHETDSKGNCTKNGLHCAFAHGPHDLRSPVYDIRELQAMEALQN

B1: chr1:26449037:26449038:+_ENSG00000175087_ENST00000374271|hu_mus|FALSE|FALSE (ssRNA)
RNA: GGGAGUUCUACAGUCCGACGAUCAUGCUUGCAAGCAGUAGGUCACGUCUCCCAGCUGCUGUCUUUAAAUGCAAUUUGGACUAAUCUGAGUUCUAGUUCAAAAGCAUCAGGGCGAUCCUGAGGGUUUGCGGCCAGCAUUUCCUUCAACAGAGGAUUGAGCAUCA
B2: 21640432_21658266_972_3pUTR_ENSMUSG00000042453_ENSMUST00000161356|mouse|control|control (ssRNA)
RNA: GGGAGUUCUACAGUCCGACGAUCCGGCUCACAGAAGGUGACAGCAUUGCCAUGCAUGAUGGUGCCACACUGCUCUCCCAUCUCACAGUUGCUGCAUUCAACCCAUAUGUUGGGGUUCAAUUCCAGUUGCUGGUAGGAGUCAAACAACAGAGGAUUGAGCAUCA
B3: chr1:39494447:39494448:+_ENSG00000168653_ENST00000372967|hu_mus|hu_hu_hu_mus_False|8_38 (ssRNA)
RNA: GGGAGUUCUACAGUCCGACGAUCGCACCGAGCGGCGUUCUUAUAGGGCUGUUCUGCGCUUAGGAACAUAAAGUGCCGGUCCAGGCUGAUGCCCAGCCUUUUCUGGAUGUCAAGGAAAGGCAUGGCUGAUGCUCGUGCUUGUCACAACAGAGGAUUGAGCAUCA
B4: chr8:104061119:104061120:+_ENSG00000155097_ENST00000518738|hu_hu|FALSE|FALSE (ssRNA)
RNA: GGGAGUUCUACAGUCCGACGAUCCAGAUUCUCUUGAACUUUGUCUUUGCUAUCUUCCAAUACAUCAGCCAUGUAUUGAGCUACUUUCUUAACCACUCCUUCUACAAAUGCAUCCAGUUUAGCCAGUUCAUCUGACAAGCCAACCAACAGAGGAUUGAGCAUCA
B5: chr5:71490377:71490378:+_ENSG00000131711_ENST00000296755|hu_mus|FALSE|FALSE (ssRNA)
RNA: GGGAGUUCUACAGUCCGACGAUCGCCCACUCCCAUCUUCUGGAACAGGAUGACAGGCUCAAUGGUAUUGCCUACACUUCUAAAUAGAGGCUCUGGUUUCAUGGACAGUUUGUUUAAGUACUGGAGAGUGAAGCAUGCUUCUUCCAACAGAGGAUUGAGCAUCA
B6: 21786304_21786424_504_CDS_ENSMUSG00000028248_ENSMUST00000108229|mouse|control|control (ssRNA)
RNA: GGGAGUUCUACAGUCCGACGAUCUGCAAAGUUAUCAGGUGGUCCACCAAAGUUGUGAUUGUUCUGGUUAAAUAUAUGCCUGUUGUCAGGGGCAAACUCCCCACUGUCCUGACUGUUGCUGUCUUCAGAAGGAGGAACAAUGUCCAACAGAGGAUUGAGCAUCA

Target: T1, UNK ZnF1-3
Assay: nsRBNS (natural sequence RNA bind-n-seq); RBNS binding buffer (assumed for nsRBNS): 25 mM Tris pH 7.5, 150 mM KCl, 3 mM MgCl2, 0.01% Triton X-100, 500 ug/ml BSA, 20 U/ml SUPERase-In, 4 C; UNK is unkempt and MSI1 is Musashi-1; names of the RNAs are library labels; protein concentration not given here; high values mean tight binding

Row | Binder | binding signal [enrichment R]
1 | B1 | 0.754
2 | B2 | 0.923
3 | B3 | 0.74
4 | B4 | 0.85
5 | B5 | 0.941
6 | B6 | 0.97
